This is one part of the list.
Biological target: T1, OsWOX13 (Oryza sativa, UniProt Q5QMM3 1-267)
T1 sequence: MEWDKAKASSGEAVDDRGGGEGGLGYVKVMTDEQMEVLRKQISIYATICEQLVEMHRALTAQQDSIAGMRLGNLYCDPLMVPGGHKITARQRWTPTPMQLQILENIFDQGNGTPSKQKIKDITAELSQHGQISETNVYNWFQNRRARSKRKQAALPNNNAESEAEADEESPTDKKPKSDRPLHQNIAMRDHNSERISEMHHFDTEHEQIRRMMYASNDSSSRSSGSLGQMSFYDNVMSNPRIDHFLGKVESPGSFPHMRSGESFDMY
Experiment: protein-binding microarray (RPBM); PBS, 2% BSA, 51.3 ng/ul salmon testes DNA, 50 uM zinc acetate, 200 nM TF, 25 C, 1 h; high values mean tight binding
Conditions: protein: recombinant; tags: N-terminal polyhistidine and DsRed monomer fusion (pET32a); label: CyDye5-dUTP incorporated in the synthesized complementary strand; 3' TTTTT single-stranded linker to array surface; dsDNA, one strand shown
Summary of the method: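 Binding signal is reported as fluorescence intensity per feature (arbitrary units) from an Axon 4000B scanner. Incubation used 200 nM of each Ni–NTA-purified, N-terminally polyhistidine- and DsRed-fused transcription factor from E. coli BL21-CodonPlus on a double-stranded custom Agilent array for 1 h at 25 °C, with 50 µM zinc acetate in the buffer, followed by washing.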

Sequence	binding signal
GTTTCATTTTAATTGACGCTTTGGACAATGACATGCTCTACGGAGTCACCTAGTGCAG	15800 fluorescence intensity (a.u.)
GAAATCAAATTACACCGATTTCAATAGTTCGGGGTCGAGACGGAGTCACCTAGTGCAG	3520 fluorescence intensity (a.u.)
AACTCATAAATTTGATATGTGATTGTTGATTGTAGACCTCCGGAGTCACCTAGTGCAG	24700 fluorescence intensity (a.u.)
ATAAAACTGAATATAATATAAATATATGTATTGTTCAGGACGGAGTCACCTAGTGCAG	4480 fluorescence intensity (a.u.)
CTGATTTGTTTCAACTGGGCTGTAGTGGACCTGATACCTGCGGAGTCACCTAGTGCAG	12200 fluorescence intensity (a.u.)
ATAGTAAATTTTACCAATGACATCGTTGAATACATTTGCACGGAGTCACCTAGTGCAG	7330 fluorescence intensity (a.u.)
CTAATAATTTGTATATATGTACCGTATGAGTAGTAGTATTCGGAGTCACCTAGTGCAG	27000 fluorescence intensity (a.u.)
CGCTTCAATTAGCATGTACTGTTGGGAGATGCACACGTTTCGGAGTCACCTAGTGCAG	8670 fluorescence intensity (a.u.)
GAGATAAATGGGCCTAAATGAGGCCGTGCCATACAATGGTCGGAGTCACCTAGTGCAG	5440 fluorescence intensity (a.u.)
CGAAACGTCTCCAATTAATCTCTCTCATCAGGTGACACCGCGGAGTCACCTAGTGCAG	3780 fluorescence intensity (a.u.)
AGTGATTATAATATTGTTCACAAATTTACAAACCTCTCATCGGAGTCACCTAGTGCAG	36700 fluorescence intensity (a.u.)
GTGATGATTTTCCATTAGGATTTAGGAATCGTGCGCCGACCGGAGTCACCTAGTGCAG	21600 fluorescence intensity (a.u.)
GCTGACTGGATAAAATCTGATAAGCGTGAAGATGACCTTTCGGAGTCACCTAGTGCAG	21400 fluorescence intensity (a.u.)
ACGAAACTTGATTTGTGTTTGGAACCTTGGGTTCTCAACCCGGAGTCACCTAGTGCAG	22700 fluorescence intensity (a.u.)
GCTAATTAACTGTGATTGCAAGAAGGAAAACCATAGAAGGCGGAGTCACCTAGTGCAG	53800 fluorescence intensity (a.u.)
ATGGGATTGATTTCAATCAATGATTAACTCAAAACTGTGTCGGAGTCACCTAGTGCAG	48300 fluorescence intensity (a.u.)
CTCTTATATGGCAGGTTTGATTGCCGCGACGACGAGAGACCGGAGTCACCTAGTGCAG	4150 fluorescence intensity (a.u.)
TTGATGATGAAATAATGAATGATATTTGACAAGGAGCTGACGGAGTCACCTAGTGCAG	18800 fluorescence intensity (a.u.)
AGAGCAAATCCCTGTCTCCTGCAATTGAAAATGAAATAATCGGAGTCACCTAGTGCAG	10700 fluorescence intensity (a.u.)
TCAAACATAACAAATTTTGTCACTAAACTACCTATACTATCGGAGTCACCTAGTGCAG	6460 fluorescence intensity (a.u.)
TTAATACTCATCTAATTTATAATTTGATTAAACCATTATTCGGAGTCACCTAGTGCAG	14700 fluorescence intensity (a.u.)

Sequence	binding signal
GAAGAATGTAGATGAACAACTGATTATCCCAAGTTTTGTTCGGAGTCACCTAGTGCAG	3610 fluorescence intensity (a.u.)
ATCCATAATTAACCTATGTGATGCTACAGTAAATATTTGTCGGAGTCACCTAGTGCAG	8520 fluorescence intensity (a.u.)
TTTCGATTGATTTTGCCTCCTGAAGCGTTGTCTAGCTTTTCGGAGTCACCTAGTGCAG	21600 fluorescence intensity (a.u.)
TCTAATGGAAGCCTTGACAAACACCTTTTCGGTATGATAACGGAGTCACCTAGTGCAG	3940 fluorescence intensity (a.u.)
AACTTAACAGGACCAATGAAATTTAACAATATGAAAGCTCCGGAGTCACCTAGTGCAG	8820 fluorescence intensity (a.u.)
GTGACATATATCTGCCTGATTGATTAATCGGATGGACGATCGGAGTCACCTAGTGCAG	51600 fluorescence intensity (a.u.)
TTAATTTACCGGATTCAATATTCCATATTTAGAAGTCACCCGGAGTCACCTAGTGCAG	3350 fluorescence intensity (a.u.)
TATAACTAAAATTAAAATTACATTTGTAAGTTCAGTTGATCGGAGTCACCTAGTGCAG	16000 fluorescence intensity (a.u.)
GAGGGCAAATAAGTAATTATCTCGGAATCCAAGATTATGTCGGAGTCACCTAGTGCAG	3730 fluorescence intensity (a.u.)
TGAACTGATTGGTCAGGAGGTAGTTACCAACGACTGAAATCGGAGTCACCTAGTGCAG	11500 fluorescence intensity (a.u.)
CATACAAATCATTACCCTAATTAACTTACTTATTTAAGATCGGAGTCACCTAGTGCAG	21400 fluorescence intensity (a.u.)
TTCTGGTGAGAGTAATTAATTAGCTAGCTGGGTGAACAGTCGGAGTCACCTAGTGCAG	8520 fluorescence intensity (a.u.)
TTTTGCATTAATTTGATCAAAGCAGTTGTATTGTTGTGAACGGAGTCACCTAGTGCAG	6720 fluorescence intensity (a.u.)
GACGGAGATTGAACTCGAGCTTCTGCGCAAGAACGGTGCGCGGAGTCACCTAGTGCAG	6290 fluorescence intensity (a.u.)
GGAGAGAGATTAGCACATTGATGGTTGTAATTTCCATTTTCGGAGTCACCTAGTGCAG	5320 fluorescence intensity (a.u.)
TATCAAGATATGTCAATCTAATCTTTTGGAGATGTTTATACGGAGTCACCTAGTGCAG	5860 fluorescence intensity (a.u.)
AGTAATTTGTTTGGTTGAACCTGGTGGTGAGTCCAAAAGGCGGAGTCACCTAGTGCAG	5690 fluorescence intensity (a.u.)
CAAATATAATTATAGTATAATCATGATGTAATTATACTATCGGAGTCACCTAGTGCAG	33100 fluorescence intensity (a.u.)
TGTAATAATGGAATAAACAAATGCTCACCAAATTAAGTCTCGGAGTCACCTAGTGCAG	5400 fluorescence intensity (a.u.)
GAAACACCATAATGGACACTAAATTACCATATCTTCAAGACGGAGTCACCTAGTGCAG	8190 fluorescence intensity (a.u.)
GCTAATGTACGGTGTATATATGATTGCCTTCTCGATTTTGCGGAGTCACCTAGTGCAG	7490 fluorescence intensity (a.u.)

Source: article PMC7819943, “Rice protein-binding microarrays: a tool to detect cis-acting elements near promoter regions in rice”
